{"source": "paper PMC7819943", "about": "“Rice protein-binding microarrays: a tool to detect cis-acting elements near promoter regions in rice”", "note": "Some of the results follow."}
{"molecular_target": "T1, OsWOX13 (Oryza sativa, UniProt Q5QMM3 1-267)", "T1 sequence": "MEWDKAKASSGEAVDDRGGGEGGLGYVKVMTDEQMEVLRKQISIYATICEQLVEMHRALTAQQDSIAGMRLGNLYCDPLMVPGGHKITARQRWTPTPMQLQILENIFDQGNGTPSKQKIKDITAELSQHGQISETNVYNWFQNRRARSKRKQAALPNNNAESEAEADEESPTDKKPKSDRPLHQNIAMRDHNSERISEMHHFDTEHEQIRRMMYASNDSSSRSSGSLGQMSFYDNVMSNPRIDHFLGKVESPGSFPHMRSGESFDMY", "assay": "protein-binding microarray (RPBM); PBS, 2% BSA, 51.3 ng/ul salmon testes DNA, 50 uM zinc acetate, 200 nM TF, 25 C, 1 h; high values mean tight binding", "details": "protein: recombinant; tags: N-terminal polyhistidine and DsRed monomer fusion (pET32a); label: CyDye5-dUTP incorporated in the synthesized complementary strand; 3' TTTTT single-stranded linker to array surface; dsDNA, one strand shown", "method_in_brief": "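The binding signal is fluorescence intensity per array feature (arbitrary units). Readings came from an Axon 4000B scanner after a washed, 2% BSA-blocked, double-stranded custom Agilent array had been incubated for 1 h at 25 °C with 200 nM protein and 50 µM zinc acetate. The protein was a Ni–NTA-purified transcription factor fused N-terminally to polyhistidine and DsRed, expressed in E. coli BL21-CodonPlus.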"}
{"sequence": "GCTAGATTGGATAAGGAGGGGAGGAGGGTGGAGGGGAGGGCGGAGTCACCTAGTGCAG", "binding signal": "5660 fluorescence intensity (a.u.)"}
{"sequence": "TACAAATCAATGTCGCATTTGGTGTTCGACTGTTCGTTTCCGGAGTCACCTAGTGCAG", "binding signal": "3340 fluorescence intensity (a.u.)"}
{"sequence": "AGCTATATCAATTTGAGACCTAAATGATACACTTAGATGACGGAGTCACCTAGTGCAG", "binding signal": "7160 fluorescence intensity (a.u.)"}
{"sequence": "TTGACGGCGTTAATTTGGTACTTAACAGCCGTCAACAATACGGAGTCACCTAGTGCAG", "binding signal": "19000 fluorescence intensity (a.u.)"}
{"sequence": "TGTCACATCATCATCCACTAATTAACAAGATACCACATCACGGAGTCACCTAGTGCAG", "binding signal": "13200 fluorescence intensity (a.u.)"}
{"sequence": "TTGATGGATTACTACTCTCCAGGTGTCTTGTATGCCCCTTCGGAGTCACCTAGTGCAG", "binding signal": "19700 fluorescence intensity (a.u.)"}
{"sequence": "TCGTGACCCTTGATTGTCAGTATCACCCTTTTGGAGATATCGGAGTCACCTAGTGCAG", "binding signal": "7120 fluorescence intensity (a.u.)"}
{"sequence": "CAATCTCAATCAAAGATTACAGAATCAATTTGCTTCTAATCGGAGTCACCTAGTGCAG", "binding signal": "14800 fluorescence intensity (a.u.)"}
{"sequence": "AAATTTTAATTTATTAGTGTACAATCGACATGCAAGATTTCGGAGTCACCTAGTGCAG", "binding signal": "5850 fluorescence intensity (a.u.)"}
{"sequence": "CCCCACTGATGATGATGATGACTCGATTCTATTCCACCGCCGGAGTCACCTAGTGCAG", "binding signal": "12400 fluorescence intensity (a.u.)"}
{"sequence": "CAAAGATTTCACTGTTTAATCTAATCTTGTGGATTTTATGCGGAGTCACCTAGTGCAG", "binding signal": "3590 fluorescence intensity (a.u.)"}
{"sequence": "ATTCTTGACTGGACGATTATACGTACAGAGGCCATGCAGACGGAGTCACCTAGTGCAG", "binding signal": "7540 fluorescence intensity (a.u.)"}
{"sequence": "ATGTAATTTTAAATTCAACTTAAACAACAAGAATAACAAACGGAGTCACCTAGTGCAG", "binding signal": "12000 fluorescence intensity (a.u.)"}
{"sequence": "GCATAATTATATATACTCGCTGGCTTCTTAGTTGCAACCACGGAGTCACCTAGTGCAG", "binding signal": "26200 fluorescence intensity (a.u.)"}
{"sequence": "GCGGAATGATTTCATTTTGATGTATGATAGCACTTCATAGCGGAGTCACCTAGTGCAG", "binding signal": "15000 fluorescence intensity (a.u.)"}
{"sequence": "TACCTAATTGTGAGAAGATGTCGCAGGTACCAGGAGTTACCGGAGTCACCTAGTGCAG", "binding signal": "14100 fluorescence intensity (a.u.)"}
{"sequence": "CTCCCAAGTAAATGATTTGAAATACCCGATCTAATTATTACGGAGTCACCTAGTGCAG", "binding signal": "3180 fluorescence intensity (a.u.)"}
{"sequence": "AATGACAGGACAACGAGGACACCGTGGATATTAAAGACCCCGGAGTCACCTAGTGCAG", "binding signal": "5040 fluorescence intensity (a.u.)"}
{"sequence": "GATCAATCTAAATAGCTAAACTTGTTGGCTCCATGTAAAACGGAGTCACCTAGTGCAG", "binding signal": "4760 fluorescence intensity (a.u.)"}
{"sequence": "TGTGCTGCTAATTAATTGCGTACACGCATGCATACACACACGGAGTCACCTAGTGCAG", "binding signal": "17200 fluorescence intensity (a.u.)"}
{"sequence": "ATACTCCAATTGACAGGCAAATGAAATGAATAGTTCTAGACGGAGTCACCTAGTGCAG", "binding signal": "21600 fluorescence intensity (a.u.)"}
{"sequence": "CAATTTAAGTTTAAATTGGCATTTCCACTTCTTAACGCCTCGGAGTCACCTAGTGCAG", "binding signal": "10300 fluorescence intensity (a.u.)"}
{"sequence": "TCGCCATTAATTACTATTGCGATCTTGAGCCTGCGTGGCACGGAGTCACCTAGTGCAG", "binding signal": "14600 fluorescence intensity (a.u.)"}
{"sequence": "TATCCAGCGTTAACTTATTAATTAGTTAGTCAAATATTCCCGGAGTCACCTAGTGCAG", "binding signal": "10100 fluorescence intensity (a.u.)"}
{"sequence": "ATAAATTTGGAGTTATCATAGAACTATAAATTCTAAAGCTCGGAGTCACCTAGTGCAG", "binding signal": "3440 fluorescence intensity (a.u.)"}
{"sequence": "CTGCAGATTAGCTTGAAATGTAATGAAGGATAGCGTCTGACGGAGTCACCTAGTGCAG", "binding signal": "8640 fluorescence intensity (a.u.)"}
{"sequence": "ATTTTAATGAATTTAAACATATACATATGTTTAGATTCATCGGAGTCACCTAGTGCAG", "binding signal": "4860 fluorescence intensity (a.u.)"}
{"sequence": "TAAAGATTTAATTGTAACGATCATAACGGTATATACAGATCGGAGTCACCTAGTGCAG", "binding signal": "16700 fluorescence intensity (a.u.)"}
{"sequence": "TACTTATAATTAGTGTTAAACATCCGATGTGACGGGTACTCGGAGTCACCTAGTGCAG", "binding signal": "23900 fluorescence intensity (a.u.)"}
{"sequence": "CAAATTACGCCCTACTAATTCATTGGTAATTTTGTATAGTCGGAGTCACCTAGTGCAG", "binding signal": "9390 fluorescence intensity (a.u.)"}
{"sequence": "CACCTTAATTACATGGTGGCTTAAGCTCCAGGTGGCCCGACGGAGTCACCTAGTGCAG", "binding signal": "9900 fluorescence intensity (a.u.)"}
{"sequence": "ATCTAGACTTAAAATTATAAGTCATGGCATTCACAGAGATCGGAGTCACCTAGTGCAG", "binding signal": "3820 fluorescence intensity (a.u.)"}
{"sequence": "GGGGATTGAGGAAAGGAGGCAGCGGCAGAAGAAAGGGCCTCGGAGTCACCTAGTGCAG", "binding signal": "4030 fluorescence intensity (a.u.)"}
{"sequence": "TCATGATGGTTTTGAAATTATTCTGACACGAAAGTTTGTGCGGAGTCACCTAGTGCAG", "binding signal": "4240 fluorescence intensity (a.u.)"}
{"sequence": "AGCAAATTTTGCCTAAACTTTATAGTATTTGCTCTAAGTACGGAGTCACCTAGTGCAG", "binding signal": "3290 fluorescence intensity (a.u.)"}
{"sequence": "GTGGATATCAATCTGTATATACTAGATCCCCACCCACCATCGGAGTCACCTAGTGCAG", "binding signal": "6630 fluorescence intensity (a.u.)"}
{"sequence": "TTACTTTTCAATTATTACATTATGATGGATCGGAGTTATTCGGAGTCACCTAGTGCAG", "binding signal": "15500 fluorescence intensity (a.u.)"}
{"sequence": "TTTGATGGATTTCGATGACTACTGTAGCAACAAGGGATAACGGAGTCACCTAGTGCAG", "binding signal": "14300 fluorescence intensity (a.u.)"}
{"sequence": "GGTAACTATTATTGTCACCGATTATTATTTGGTTCATATGCGGAGTCACCTAGTGCAG", "binding signal": "3700 fluorescence intensity (a.u.)"}
{"sequence": "AACAAATTTAACAATATAGTAACTCTAACTCCTAGCTCCCCGGAGTCACCTAGTGCAG", "binding signal": "14300 fluorescence intensity (a.u.)"}
{"sequence": "ATCCTAATGAGCTCCTAAATTAATAAGATTATCCATGTTGCGGAGTCACCTAGTGCAG", "binding signal": "12700 fluorescence intensity (a.u.)"}
{"sequence": "GTGTAATTAATACAAAGATAAAATAATAAGAATGTTTTCTCGGAGTCACCTAGTGCAG", "binding signal": "9350 fluorescence intensity (a.u.)"}
